Experimental data from paper PMC7819943, “Rice protein-binding microarrays: a tool to detect cis-acting elements near promoter regions in rice”.
This is one part of the list.

Each sequence was assayed against T1, OsWOX13 (Oryza sativa, UniProt Q5QMM3 1-267) (assay: protein-binding microarray (RPBM); PBS, 2% BSA, 51.3 ng/ul salmon testes DNA, 50 uM zinc acetate, 200 nM TF, 25 C, 1 h; high values mean tight binding). Settings: protein: recombinant; tags: N-terminal polyhistidine and DsRed monomer fusion (pET32a); label: CyDye5-dUTP incorporated in the synthesized complementary strand; 3' TTTTT single-stranded linker to array surface; dsDNA, one strand shown.
T1 sequence: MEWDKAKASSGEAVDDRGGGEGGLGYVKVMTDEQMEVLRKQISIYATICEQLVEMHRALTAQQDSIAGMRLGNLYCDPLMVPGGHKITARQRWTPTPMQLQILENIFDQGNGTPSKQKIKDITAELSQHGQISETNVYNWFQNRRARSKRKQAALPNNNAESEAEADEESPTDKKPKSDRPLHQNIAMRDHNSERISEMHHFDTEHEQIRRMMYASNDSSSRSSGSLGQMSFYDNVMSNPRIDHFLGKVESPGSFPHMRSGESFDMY
Outline: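 The binding signal is fluorescence intensity per feature, in arbitrary units, read on an Axon 4000B scanner. Polyhistidine- and DsRed-tagged transcription factors (N-terminal fusions) from E. coli BL21-CodonPlus were purified on Ni–NTA and applied at 200 nM for 1 h at 25 °C to a double-stranded, BSA-blocked custom Agilent array in buffer with 50 µM zinc acetate.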

Row | Sequence | binding signal
1 | TTGATTAATAATAGTTATATCATGTTGGCTCACTCGATCGCGGAGTCACCTAGTGCAG | 33700 fluorescence intensity (a.u.)
2 | CTAATTATACTTCCACGTCAATTAAGGATCTAATTATACTCGGAGTCACCTAGTGCAG | 9060 fluorescence intensity (a.u.)
3 | GTCCGACGACATAATTGATTTTCTTGTTGTTCAGCTTGATCGGAGTCACCTAGTGCAG | 37800 fluorescence intensity (a.u.)
4 | AAAGATAGTCAAATTTAGAGTAGTTTGATTTTGACCAAAGCGGAGTCACCTAGTGCAG | 5260 fluorescence intensity (a.u.)
5 | GATTAGGTTAATTGAGATCTGCCTTGCTCTGCTCTGCTCGCGGAGTCACCTAGTGCAG | 21500 fluorescence intensity (a.u.)
6 | AGAGTTGTAATTAACCTTTTCAGGTTGTATTGACTGCAAGCGGAGTCACCTAGTGCAG | 3760 fluorescence intensity (a.u.)
7 | TCCTGACTGATAATACTTACCATCTTATTTATGACTTTGACGGAGTCACCTAGTGCAG | 23400 fluorescence intensity (a.u.)
8 | TGAAATTTAACTTAATCCAATTGCATTTTGTAAGCAATTCCGGAGTCACCTAGTGCAG | 9680 fluorescence intensity (a.u.)
9 | CTATTGAGACTAATTAATCTATGATTAGCCTGTGTGATGCCGGAGTCACCTAGTGCAG | 31000 fluorescence intensity (a.u.)
10 | ACACCCTTTAATTTATATTCATTGTAATCTAACGGTGTAGCGGAGTCACCTAGTGCAG | 11000 fluorescence intensity (a.u.)
11 | GTCATAATTTTAAAAGTTTAGGGGTTGATTCGGTCCAAATCGGAGTCACCTAGTGCAG | 8310 fluorescence intensity (a.u.)
12 | CTATACAACAAATCATTAATTAGGCTCAAAAGAAAGAAAGCGGAGTCACCTAGTGCAG | 11100 fluorescence intensity (a.u.)
13 | AACTTTTCCATCACATCGTTCTAATTTCTTCAAACTTCCACGGAGTCACCTAGTGCAG | 3690 fluorescence intensity (a.u.)
14 | CTTGTCAAATTAACTCCCGCACATACAGCGTGGCACGAGGCGGAGTCACCTAGTGCAG | 4140 fluorescence intensity (a.u.)
15 | CTGATTTATGTGCTCTGAAATTGTGAACCACCTGAAGTAGCGGAGTCACCTAGTGCAG | 9290 fluorescence intensity (a.u.)
16 | GTTGACAGACGTGTATTCCTTAATTTGCAGCATGCTTACACGGAGTCACCTAGTGCAG | 40800 fluorescence intensity (a.u.)
17 | AAGTAATTATAATCAGCCTTTGAGCCTTCTCCCGTGAGTGCGGAGTCACCTAGTGCAG | 43200 fluorescence intensity (a.u.)
18 | ATGATTGGCTTGATACAGAAATGGAAGATGCTCCACAAAGCGGAGTCACCTAGTGCAG | 37400 fluorescence intensity (a.u.)
19 | TTTGATGTTAGATTTAATAACACTATGTTGATGTGGTGCACGGAGTCACCTAGTGCAG | 6660 fluorescence intensity (a.u.)
20 | ATTTCGGTTATTAATTGTGTATCGTACCAGGAATTATTTGCGGAGTCACCTAGTGCAG | 5400 fluorescence intensity (a.u.)
21 | AATTTAAACACGTAATTAAGCTAAGCGAGTTGCAGCAAAACGGAGTCACCTAGTGCAG | 5050 fluorescence intensity (a.u.)
22 | AATGACTGCTCCATTCCTGATCTGAATCAGTGGTTCCAACCGGAGTCACCTAGTGCAG | 10900 fluorescence intensity (a.u.)
23 | CCTACAATTAAGGACGAAATGACACGTGGAAATAGACGTGCGGAGTCACCTAGTGCAG | 5710 fluorescence intensity (a.u.)
